At least one compound was matched to its structure with a doubt left. Non-standard residues stand in square brackets, D forms with d. Residues, ends and D or L forms follow the SMILES beside them. Groups on a side chain read outwards from the residue. *: point of attachment. X2 = O=C(O)CCCCCCCCCCCCCCCCCCC(=O)NC[C@H]1CC[C@H](C(=O)N[C@@H](CCC(=O)NCCCC[C@H](NC(=O)CC[C@H](NC(=O)[C@H]2CC[C@H](CNC(=O)CCCCCCCCCCCCCCCCCCC(=O)O)CC2)C(=O)O)C(=O)*)C(=O)O)CC1; AEEA = NCCOCCOCC(=O)O; Aib = CC(C)(N)C(=O)O
What was measured:
[1] = system: obese, diabetic mouse model (db/db mice); experiment: Pharmacodynamic study in db/db mice: acute effect on blood glucose and body weight; format: in vivo; conditions: 48 h vs basal
Method: The purpose of the study is to verify the acute effect of the GLP-1 derivatives on blood glucose (BG) and body weight (BW) in a diabetic setting.
The GLP-1 derivatives of Examples 2-4 and 6-10 were tested in a single-dose study in an obese, diabetic mouse model (db/db mice) as described in the following.
Six db/db mice per compound to be tested (from Taconic, Denmark), fed from birth with the diet NIH31 (NIH 31M Rodent Diet, commercially available from Taconic Farms, Inc., US, see www.taconic.com), were enrolled for the study at the age of approximately 10 weeks. At arrival to the animal facility the mice were given free access to standard chow (e.g. Altromin 1324, Brogaarden, Denmark) and tap water and kept at 24° C. After 1-2 weeks of acclimatisation, the basal blood glucose was assessed twice on two consecutive days (i.e. at 9 am). The mice were allocated to treatment groups based on matching blood glucose levels and body weights. The mice were used in experiments with a duration of 96 hours (Examples 1, 3-4, and 6-10) or up to 240 hours (Examples 2, 12, and 14), and were re-used for up to 2 times. After the last experiment the mice were euthanised.
The GLP-1 derivative was dissolved in the vehicle, to a dosing concentration of 0.5-5 nmol/ml dependent on the respective dose. Animals were dosed once, at the start of the experiment, s.c. with a dose-volume of 6 ml/kg (i.e. 300 μl per 50 g mouse).
On the day of dosing, blood glucose was assessed at time −½ h (8.30 am), the mice were weighed after this. The GLP-1 derivative was dosed at approximately 9 am (time 0). On the day of dosing, blood glucose was assessed at times 1, 2, 4 and 8 h (10 am, 11 am, 1 pm and 5 pm) after dosing.
On the following days, the blood glucose was assessed at time 24 h, 48 h, 72 h, and 96 h (all Example compounds), and for the GLP-1 derivatives of Examples […] blood glucose was further assessed daily up to 240 h after dosing. On each day, the mice were weighed following blood glucose sampling.
The mice were weighed individually on a digital weighing scale.
Samples for the measurement of blood glucose were obtained from the tail tip capillary of conscious mice. Blood, 10 μl, was collected into heparinised capillaries and transferred to 500 μl glucose buffer (EKF system solution, Eppendorf, Germany). The glucose concentration was measured using the glucose oxidase method (glucose analyser Biosen 5040, EKF Diagnostic, GmbH, Germany). The samples were kept at room temperature for up to 1 h until analysis. If analysis had to be postponed, samples were kept at 4° C. for a maximum of 24 h.
The data are presented as percent change in blood glucose or body weight measured at the 48 h time points. For example, the percent change in blood glucose level at 48 h for each individual is calculated as follows: [[(blood glucose level at 48 h)−(basal blood glucose level)]/(basal blood glucose level)]×100%], where basal blood glucose level refers to the level before the administration of any treatment−and vice versa for the body weight change. A negative value refers to a % reduction.
The following results were obtained (averages of all individual determinations corresponding to the respective treatment): […]

[2] = system: lean Sprague Dawley male rats; experiment: Pharmacodynamic study in rats: acute effect on food intake and body weight; format: in vivo; conditions: single s.c. dose 50 nmol/kg, 48 h vs baseline

Structure (SMILES)	% change in blood glucose ([1]; single s.c. dose 10 nmol/kg)	% change in body weight ([1]; single s.c. dose 10 nmol/kg)	also measured
CC[C@H](C)[C@H](NC(=O)[C@H](Cc1ccccc1)NC(=O)[C@H](CCC(=O)O)NC(=O)[C@H](CCCNC(=N)N)NC(=O)[C@H](C)NC(=O)[C@H](C)NC(=O)[C@H](CCC(N)=O)NC(=O)[C@H](CCC(=O)O)NC(=O)[C@H](CCC(=O)O)NC(=O)[C@H](CC(C)C)NC(=O)[C@H](Cc1ccc(O)cc1)NC(=O)[C@H](CO)NC(=O)[C@H](CO)NC(=O)[C@@H](NC(=O)[C@H](CC(=O)O)NC(=O)[C@H](CO)NC(=O)[C@@H](NC(=O)[C@H](Cc1ccccc1)NC(=O)[C@@H](NC(=O)CNC(=O)[C@H](CCC(=O)O)NC(=O)C(C)(C)NC(=O)[C@@H](N)Cc1c[nH]cn1)[C@@H](C)O)[C@@H](C)O)C(C)C)C(=O)N[C@@H](C)C(=O)N[C@@H](Cc1c[nH]c2ccccc12)C(=O)N[C@@H](CC(C)C)C(=O)N[C@H](C(=O)N[C@@H](CCCNC(=N)N)C(=O)NCC(=O)N[C@@H](CCCNC(=N)N)C(=O)N[C@@H](CCCCNC(=O)CCOCCOCCOCCOCCOCCOCCNC(=O)[C@H](CCCCNC(=O)CC[C@H](NC(=O)[C@H]1CC[C@H](CNC(=O)CCCCCCCCCCCCCCCCCCC(=O)O)CC1)C(=O)O)NC(=O)CC[C@H](NC(=O)[C@H]1CC[C@H](CNC(=O)CCCCCCCCCCCCCCCCCCC(=O)O)CC1)C(=O)O)C(=O)O)C(C)C [Example 3, N{Epsilon-37}-3-[2-[2-[2-[2-[2-[2-[[(2S)-2,6-bis[[(4S)-4-carboxy-4-[[4-[(19-carboxynonadecanoylamino)methyl]cyclohexanecarbonyl]amino]butanoyl]amino]hexanoyl]amino]ethoxy]ethoxy]ethoxy]ethoxy]ethoxy]ethoxy]propanoyl-[Aib8,Glu22,Arg26,Arg34,Lys37]-GLP-1-(7-37)-peptide]	−37%	−2%	–
CC[C@H](C)[C@H](NC(=O)[C@H](Cc1ccccc1)NC(=O)[C@H](CCC(=O)O)NC(=O)[C@H](CCCNC(=N)N)NC(=O)[C@H](C)NC(=O)[C@H](C)NC(=O)[C@H](CCC(N)=O)NC(=O)[C@H](CCC(=O)O)NC(=O)[C@H](CCC(=O)O)NC(=O)[C@H](CC(C)C)NC(=O)[C@H](Cc1ccc(O)cc1)NC(=O)[C@H](CO)NC(=O)[C@H](CO)NC(=O)[C@@H](NC(=O)[C@H](CC(=O)O)NC(=O)[C@H](CO)NC(=O)[C@@H](NC(=O)[C@H](Cc1ccccc1)NC(=O)[C@@H](NC(=O)CNC(=O)[C@H](CCC(=O)O)NC(=O)C(C)(C)NC(=O)[C@@H](N)Cc1c[nH]cn1)[C@@H](C)O)[C@@H](C)O)C(C)C)C(=O)N[C@@H](C)C(=O)N[C@@H](Cc1c[nH]c2ccccc12)C(=O)N[C@@H](CC(C)C)C(=O)N[C@H](C(=O)N[C@@H](CCCNC(=N)N)C(=O)NCC(=O)N[C@@H](CCCNC(=N)N)C(=O)N[C@@H](CCCCNC(=O)COCCOCCNC(=O)COCCOCCNC(=O)[C@H](CCCCNC(=O)COCCOCCNC(=O)COCCOCCNC(=O)CC[C@H](NC(=O)[C@H]1CC[C@H](CNC(=O)CCCCCCCCCCCCCCCCCCC(=O)O)CC1)C(=O)O)NC(=O)COCCOCCNC(=O)COCCOCCNC(=O)CC[C@H](NC(=O)[C@H]1CC[C@H](CNC(=O)CCCCCCCCCCCCCCCCCCC(=O)O)CC1)C(=O)O)C(=O)O)C(C)C [Example 2, N{Epsilon-37}-[2-[2-[2-[[2-[2-[2-[[(2S)-2,6-bis[[2-[2-[2-[[2-[2-[2-[[(4S)-4-carboxy-4-[[4-[(19-carboxynonadecanoylamino)methyl]cyclohexanecarbonyl]amino]butanoyl]amino]ethoxy]ethoxy]acetyl]amino]ethoxy]ethoxy]acetyl]amino]hexanoyl]amino]ethoxy]ethoxy]acetyl]amino]ethoxy]ethoxy]acetyl]-[Aib8,Glu22,Arg26,Arg34,Lys37]-GLP-1-(7-37)-peptide]	–	–	% change in blood glucose ([1]; single s.c. dose 30 nmol/kg): −42%; % change in body weight ([1]; single s.c. dose 30 nmol/kg): −4%
CC[C@H](C)[C@H](NC(=O)[C@H](Cc1ccccc1)NC(=O)[C@H](CCC(=O)O)NC(=O)[C@H](CCCNC(=N)N)NC(=O)[C@H](C)NC(=O)[C@H](C)NC(=O)[C@H](CCC(N)=O)NC(=O)[C@H](CCC(=O)O)NC(=O)[C@H](CCC(=O)O)NC(=O)[C@H](CC(C)C)NC(=O)[C@H](Cc1ccc(O)cc1)NC(=O)[C@H](CO)NC(=O)[C@H](CO)NC(=O)[C@@H](NC(=O)[C@H](CC(=O)O)NC(=O)[C@H](CO)NC(=O)[C@@H](NC(=O)[C@H](Cc1ccccc1)NC(=O)[C@@H](NC(=O)CNC(=O)[C@H](CCC(=O)O)NC(=O)C(C)(C)NC(=O)[C@@H](N)Cc1c[nH]cn1)[C@@H](C)O)[C@@H](C)O)C(C)C)C(=O)N[C@@H](C)C(=O)N[C@@H](Cc1c[nH]c2ccccc12)C(=O)N[C@@H](CC(C)C)C(=O)N[C@H](C(=O)N[C@@H](CCCNC(=N)N)C(=O)N[C@@H](CCCCNC(=O)COCCOCCNC(=O)COCCOCCNC(=O)COCCOCCNC(=O)COCCOCCNC(=O)COCCOCCNC(=O)COCCOCCNC(=O)[C@H](CCCCNC(=O)CC[C@H](NC(=O)[C@H]1CC[C@H](CNC(=O)CCCCCCCCCCCCCCCCCCC(=O)O)CC1)C(=O)O)NC(=O)CC[C@H](NC(=O)[C@H]1CC[C@H](CNC(=O)CCCCCCCCCCCCCCCCCCC(=O)O)CC1)C(=O)O)C(=O)N[C@@H](CCCNC(=N)N)C(=O)NCC(=O)O)C(C)C [Example 17] (H-H[Aib]EGTFTSDVSSYLEEQAAREFIAWLVRK([AEEA-AEEA-AEEA-AEEA-AEEA-AEEA-X2])RG-OH; N-terminus and C-terminus assumed)	–	–	% change in body weight [2]: +1%; % change in food intake [2]: +5%
CC[C@H](C)[C@H](NC(=O)[C@H](Cc1ccccc1)NC(=O)[C@H](CCC(=O)O)NC(=O)[C@H](CCCNC(=N)N)NC(=O)[C@H](C)NC(=O)[C@H](C)NC(=O)[C@H](CCC(N)=O)NC(=O)[C@H](CCC(=O)O)NC(=O)[C@H](CCC(=O)O)NC(=O)[C@H](CC(C)C)NC(=O)[C@H](Cc1ccc(O)cc1)NC(=O)[C@H](CO)NC(=O)[C@H](CO)NC(=O)[C@@H](NC(=O)[C@H](CC(=O)O)NC(=O)[C@H](CO)NC(=O)[C@@H](NC(=O)[C@H](Cc1ccccc1)NC(=O)[C@@H](NC(=O)CNC(=O)[C@H](CCC(=O)O)NC(=O)C(C)(C)NC(=O)[C@@H](N)Cc1c[nH]cn1)[C@@H](C)O)[C@@H](C)O)C(C)C)C(=O)N[C@@H](C)C(=O)N[C@@H](Cc1c[nH]c2ccccc12)C(=O)N[C@@H](CC(C)C)C(=O)N[C@H](C(=O)N[C@@H](CCCNC(=N)N)C(=O)NCC(=O)N[C@@H](CCCNC(=N)N)C(=O)N[C@@H](CCCCNC(=O)[C@@H](N)CCCCNC(=O)[C@@H](N)CCCCNC(=O)[C@H](CCCCNC(=O)CC[C@H](NC(=O)[C@H]1CC[C@H](CNC(=O)CCCCCCCCCCCCCCCCCCC(=O)O)CC1)C(=O)O)NC(=O)CC[C@H](NC(=O)[C@H]1CC[C@H](CNC(=O)CCCCCCCCCCCCCCCCCCC(=O)O)CC1)C(=O)O)C(=O)O)C(C)C [Example 9, N{Epsilon-37}-[(2S)-2-amino-6-[[(2S)-2-amino-6-[[(2S)-2,6-bis[[(4S)-4-carboxy-4-[[4-[(19-carboxynonadecanoylamino)methyl]cyclohexanecarbonyl]amino]butanoyl]amino]hexanoyl]amino]hexanoyl]amino]hexanoyl]-[Aib8,Glu22,Arg26,Arg34,Lys37]-GLP-1-(7-37)-peptide]	−11%	−4%	–
